Measured values as given in patent publication US7271245B2, “Methods and compositions for inhibition of metastasis” (The Scripps Research Institute, priority 2004, dated 2007).

Key:
alpha IIb beta 3 = target: T1, alpha IIb beta 3 (Homo sapiens, UniProt P05106+P08514); assay: Flow cytometry, binding to other RGD-recognizing integrins
T1 construct: M21-LIIb cells (αIIbβ3, no αv integrin); expressed in transfected cells; host or cells: M21-LIIb human melanoma cells
Method: (§1) Flow cytometry. scFv binding to human tumor cells was analyzed by flow cytometry, initially with cloned scFv phage and then with purified scFv protein. Per sample, 2×10^5 tumor cells were blocked with goat serum and incubated either with scFv phage (2-5×10^10) (1 h at RT) followed by mouse anti-M13 mAb (Serotec) (30 min on ice) and goat FITC-anti mouse (Pierce) (30 min on ice), or with purified scFv (1.25 to 40 μg/ml, routinely 10 to 15 μg/ml) (45 min on ice), followed by mouse anti-FLAG mAb M2 (Sigma) (30 min on ice) and goat FITC-anti mouse. Binding/washing buffer was TBS with or without divalent cations (1 mM Ca^2+, 1 mM Mg^2+, 0.2 mM Mn^2+). Alternatively, tumor cells were washed in 10 ml of plasma (prepared freshly from human blood anticoagulated with 50 nM D-Phe-D-Pro-D-arginyl chloromethyl ketone, PPACK, Felding-Habermann et al., J. Biol. Chem. 271: 5892-5900, 1996), resuspended in plasma and then incubated sequentially, without washing, with purified scFv (45 min on ice), followed by anti-FLAG M2 (30 min on ice) and FITC-anti mouse (30 min on ice). All samples were counter stained with propidium iodide (PI) and analyzed on a Becton-Dickinson FACScan, with live gate set to exclude PI positive cells.
(§2) To generate therapeutic reagents that specifically react with activated αvβ3, a phage display library of single chain antibody fragments (scFv) was exploited. This library was derived from cancer patient blood lymphocyte cDNA libraries and allowed us to test the hypothesis that the expressed immune repertoire contains antibodies that recognize integrin αvβ3, and distinguish between its activated and non-activated forms. Mao et al., Proc. Natl. Acad. Sci. U.S.A 96: 6953-6958, 1999. A subtractive panning approach was designed based on variants of MDA-MB 435 human breast cancer cells. […] Apparently, these cells are selected during metastasis, as variant cells isolated from lung and bone metastases in immune deficient mice express constitutively activated αvβ3. To establish a cell population that uniformly expresses non-activated αvβ3, MDA-MB 435 parental cells were cloned by limiting dilution, and clones tested for αvβ3 functionality. […] A cell line, MDA-MB 435 Lung-Lung, was established which expressed αvβ3 in a constitutively activated form. This variant stems from a lung metastase of an immune deficient mouse whose mammary fat pad had been injected with parental MDA-MB 435 cells. […] After 5 rounds of subtracting the phage library on Parent Combo cells and panning on Lung-Lung cells, scFv clones were analyzed by flow cytometry for their ability to bind integrin αvβ3 on human tumor cells, and to distinguish between the activated and non-activated forms of the receptor (FIG. 1). […]

α5β1 = target: T2, α5β1 (Homo sapiens, UniProt P05556+P08648); assay: as above
T2 construct: endogenous in cells
Method: as §1, §2

integrin αvβ5 = target: T3, integrin αvβ5 (Homo sapiens, UniProt P06756+P18084); assay: as above
T3 construct: UCLA-P3 lung adenocarcinoma cells (αv integrins, but no αvβ3); endogenous in cells; host or cells: UCLA-P3 human lung adenocarcinoma cells
Method: as §1, §2

BMS breast cancer cells = assay: Antibody internalization (confocal microscopy); assay type: cell-based, human; conditions: FITC-labeled scFv, permissive temperature (37° C.)
Method: FIGS. 3A, 3B, 3C, 3D, 3E. scFv Bc-12 and Bc-15 inhibit αvβ3 mediated adhesive breast cancer cell functions. (A) Adhesion of BMS human breast cancer cells to fibrinogen (Fg), vitronectin (VN) or type I collagen (Col I) in the absence or presence of 3 μM Bc-12, Bc-15 or their RGE mutants Mut-12, Mut-15, compared to 200 μM GRGDSPK peptide (SEQ ID NO: 11). Protein coating concentrations: 10 μg/ml (VN, Col I) or 20 μg/ml (Fg). Adhesion time: 30 min at 37° C. (B) Effect of scFvs on haptotactic BMS cell migration toward a fibrinogen substrate (16 hrs at 37° C. in transwell chambers with or without 2 μM Bc-12, Bc-15 or their RGE mutants Mut-12 or Mut-15, compared to 200 μM GRGDSPK peptide) (SEQ ID NO: 11). (C) Effect of scFvs on breast cancer cell arrest during blood flow. […] Tumor cell adhesion was quantified by image acquisition at 30 predefined positions during blood flow. Left: representative images of platelet signal (thrombi, green fluorescence) and tumor cell signal (red fluorescence) at identical x,y positions. […]
Antibody internalization. Breast cancer cells grown in chamber slide wells were incubated with 20 μg/ml FITC-labeled scFv in serum free EMEM for 3 h either at 4° C. or 37° C., washed 10 times, fixed and permeabilized with 95% ethanol, stained with propidium iodide, mounted in antifade solution, and analyzed with a laser scanning confocal microscope.

T3 sequence (P06756 31-889 limits assumed): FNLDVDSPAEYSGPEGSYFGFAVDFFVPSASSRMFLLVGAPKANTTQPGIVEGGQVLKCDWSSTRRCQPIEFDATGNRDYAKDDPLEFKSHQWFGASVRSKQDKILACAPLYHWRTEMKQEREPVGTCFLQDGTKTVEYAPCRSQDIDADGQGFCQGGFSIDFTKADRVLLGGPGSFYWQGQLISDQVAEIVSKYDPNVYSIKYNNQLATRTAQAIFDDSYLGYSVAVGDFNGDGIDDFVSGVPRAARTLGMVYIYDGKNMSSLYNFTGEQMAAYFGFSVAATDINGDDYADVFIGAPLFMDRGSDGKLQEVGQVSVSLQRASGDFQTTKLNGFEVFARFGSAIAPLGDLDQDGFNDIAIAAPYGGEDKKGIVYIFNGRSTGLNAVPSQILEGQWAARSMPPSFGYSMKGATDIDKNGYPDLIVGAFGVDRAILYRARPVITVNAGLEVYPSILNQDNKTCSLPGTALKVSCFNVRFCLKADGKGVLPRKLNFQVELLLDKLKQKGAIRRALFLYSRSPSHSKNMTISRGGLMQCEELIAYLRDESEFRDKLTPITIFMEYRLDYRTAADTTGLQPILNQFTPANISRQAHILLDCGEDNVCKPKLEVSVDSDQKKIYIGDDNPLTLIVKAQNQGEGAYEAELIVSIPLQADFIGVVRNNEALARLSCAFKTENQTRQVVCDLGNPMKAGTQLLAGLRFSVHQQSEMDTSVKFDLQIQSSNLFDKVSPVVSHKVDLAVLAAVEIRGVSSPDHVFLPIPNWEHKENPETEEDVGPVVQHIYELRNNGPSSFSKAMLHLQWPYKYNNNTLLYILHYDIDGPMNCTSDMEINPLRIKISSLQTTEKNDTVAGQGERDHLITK
T3 sequence (P06756 891-1048 partner limits assumed): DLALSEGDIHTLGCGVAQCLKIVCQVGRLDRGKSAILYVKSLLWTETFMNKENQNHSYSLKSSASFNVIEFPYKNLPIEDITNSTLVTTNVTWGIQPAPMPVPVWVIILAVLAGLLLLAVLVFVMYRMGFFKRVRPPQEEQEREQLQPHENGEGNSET
T3 sequence (P18084 24-799): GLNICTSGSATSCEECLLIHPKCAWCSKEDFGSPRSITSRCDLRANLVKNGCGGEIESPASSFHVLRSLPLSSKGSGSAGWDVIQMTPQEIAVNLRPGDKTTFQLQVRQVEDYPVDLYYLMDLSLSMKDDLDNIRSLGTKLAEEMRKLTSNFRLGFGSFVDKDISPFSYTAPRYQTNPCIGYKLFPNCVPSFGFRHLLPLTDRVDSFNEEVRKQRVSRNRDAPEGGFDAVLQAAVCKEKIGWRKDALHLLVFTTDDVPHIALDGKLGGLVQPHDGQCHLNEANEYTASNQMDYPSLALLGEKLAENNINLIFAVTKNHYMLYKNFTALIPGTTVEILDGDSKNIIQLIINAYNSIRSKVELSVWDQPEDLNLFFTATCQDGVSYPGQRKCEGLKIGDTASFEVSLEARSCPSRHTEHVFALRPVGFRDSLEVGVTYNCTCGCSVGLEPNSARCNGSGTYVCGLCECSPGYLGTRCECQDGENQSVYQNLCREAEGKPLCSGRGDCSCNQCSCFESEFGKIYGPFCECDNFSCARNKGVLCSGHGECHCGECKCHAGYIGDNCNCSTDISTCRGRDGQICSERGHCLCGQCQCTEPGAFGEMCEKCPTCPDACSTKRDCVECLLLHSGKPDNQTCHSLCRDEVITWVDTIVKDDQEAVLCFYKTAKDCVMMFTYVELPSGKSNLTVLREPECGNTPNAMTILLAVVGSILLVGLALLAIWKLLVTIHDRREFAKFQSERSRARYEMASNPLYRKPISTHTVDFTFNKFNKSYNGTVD
T2 sequence (P08648 42-894 limits assumed): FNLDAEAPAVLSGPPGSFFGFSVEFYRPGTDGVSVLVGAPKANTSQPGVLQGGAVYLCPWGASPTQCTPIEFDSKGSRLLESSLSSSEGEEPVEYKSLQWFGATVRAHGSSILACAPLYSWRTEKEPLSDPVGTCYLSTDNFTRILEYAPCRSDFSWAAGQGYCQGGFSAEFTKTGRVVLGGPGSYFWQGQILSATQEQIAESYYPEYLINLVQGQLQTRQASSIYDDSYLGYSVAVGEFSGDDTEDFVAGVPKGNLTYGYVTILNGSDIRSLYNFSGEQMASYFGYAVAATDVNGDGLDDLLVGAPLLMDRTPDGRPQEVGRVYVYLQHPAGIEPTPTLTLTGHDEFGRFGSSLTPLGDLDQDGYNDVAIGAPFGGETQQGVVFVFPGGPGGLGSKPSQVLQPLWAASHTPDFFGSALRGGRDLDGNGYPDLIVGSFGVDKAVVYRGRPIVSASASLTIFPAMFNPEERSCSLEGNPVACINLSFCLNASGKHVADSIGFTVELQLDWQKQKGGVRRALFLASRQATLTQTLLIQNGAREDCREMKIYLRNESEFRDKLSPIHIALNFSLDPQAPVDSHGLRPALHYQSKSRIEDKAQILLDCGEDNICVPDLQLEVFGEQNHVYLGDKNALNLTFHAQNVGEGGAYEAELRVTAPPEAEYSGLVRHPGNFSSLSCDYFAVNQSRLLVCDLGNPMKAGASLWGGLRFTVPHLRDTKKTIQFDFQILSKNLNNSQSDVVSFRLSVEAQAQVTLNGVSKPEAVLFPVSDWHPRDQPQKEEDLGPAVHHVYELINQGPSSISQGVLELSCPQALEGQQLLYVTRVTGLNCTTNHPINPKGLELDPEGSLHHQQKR
T2 sequence (P08648 895-1049 partner limits assumed): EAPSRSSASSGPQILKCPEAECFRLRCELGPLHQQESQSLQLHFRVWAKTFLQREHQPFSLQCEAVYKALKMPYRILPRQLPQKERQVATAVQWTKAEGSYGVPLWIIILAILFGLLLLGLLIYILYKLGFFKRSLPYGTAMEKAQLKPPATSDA
T2 sequence (P05556 21-798): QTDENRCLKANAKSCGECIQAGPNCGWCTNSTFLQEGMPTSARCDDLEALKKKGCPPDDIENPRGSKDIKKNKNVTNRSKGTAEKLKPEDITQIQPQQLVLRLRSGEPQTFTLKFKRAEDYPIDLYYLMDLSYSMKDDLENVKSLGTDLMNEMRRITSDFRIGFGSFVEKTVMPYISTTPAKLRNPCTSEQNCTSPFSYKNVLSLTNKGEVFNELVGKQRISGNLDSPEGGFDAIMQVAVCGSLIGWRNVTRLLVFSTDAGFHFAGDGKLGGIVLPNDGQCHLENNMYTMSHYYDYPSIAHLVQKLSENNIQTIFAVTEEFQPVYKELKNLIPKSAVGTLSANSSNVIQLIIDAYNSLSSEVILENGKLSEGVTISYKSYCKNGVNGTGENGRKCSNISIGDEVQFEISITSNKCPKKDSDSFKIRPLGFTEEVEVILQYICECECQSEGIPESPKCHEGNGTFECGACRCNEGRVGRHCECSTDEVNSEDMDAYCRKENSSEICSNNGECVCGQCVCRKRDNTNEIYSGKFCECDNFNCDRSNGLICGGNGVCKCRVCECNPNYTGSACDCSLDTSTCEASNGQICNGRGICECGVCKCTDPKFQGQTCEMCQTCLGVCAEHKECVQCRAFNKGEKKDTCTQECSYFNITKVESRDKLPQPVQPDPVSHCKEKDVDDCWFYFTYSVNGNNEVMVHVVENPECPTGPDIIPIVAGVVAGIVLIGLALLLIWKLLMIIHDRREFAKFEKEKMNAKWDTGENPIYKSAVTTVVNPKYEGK

binding to alpha IIb beta 3 (alpha IIb beta 3): do not bind | binding to α5β1 (α5β1): do not bind | binding to integrin αvβ5 (integrin αvβ5): do not bind
B1: Bc-15: patient derived human scFv antibody against activated αvβ3 with RGD motif in CDR-H3; cDNA ATCC PTA-6304 (protein)
scFv: MAQVQLVQSGAEVKEPGSSVKVSCKASGGTFSSYAIYWVRQAPGQGLEWMGWINPDSGDTNSAQQFQGRVTMTRDTSISTAYMELSRLRSDDTAMYYCARPPRGDGPDYWGQGTLVTVSSGGGGGS[letters of about 100 residues not shown]RGLGGLVDYKDDDDK
binding and internalization by adherent cells (BMS breast cancer cells): efficiently bound and readily internalized
